Some of the results follow. The list includes weakly bound sequences.

This assay addresses T1, MBP-FoxP3dN (UniProt Q99JB6).
T1 sequence: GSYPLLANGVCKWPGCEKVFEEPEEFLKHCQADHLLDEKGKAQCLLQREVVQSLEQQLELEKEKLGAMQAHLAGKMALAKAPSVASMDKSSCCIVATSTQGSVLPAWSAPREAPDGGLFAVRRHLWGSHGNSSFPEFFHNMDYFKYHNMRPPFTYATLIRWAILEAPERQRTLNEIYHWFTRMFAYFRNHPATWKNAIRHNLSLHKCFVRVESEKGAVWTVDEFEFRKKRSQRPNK
The assay is described as follows: PD-seq (MBP pull-down with sequencing). The settings on record: 20 mM Tris-HCl pH 7.5, 100 mM NaCl, 1.5 mM MgCl2, 0.4 uM protein, 0.1 uM dsDNA library, 30 min, room temperature, amylose pull-down; high values mean tight binding; double strand, one strand shown.
Turning to “GATGATTGTTCTCCCAGCTGATGAATTTGGTAGCTCGAGTAAACAAATTTTCCTAATCTTTCTGTTCAAGCGCCATCTAC”, the binding signal (RPM ratio (pull-down/input)) turned out to be 1.1. For “GATGATTGTTCTCCCAGCTGATGAATTCGTTGCTTCGAGTAAACAAATTTTCCTAATCTTTCTGTTCAAGCGCCATCTAC”, the binding signal (RPM ratio (pull-down/input)) was found to be 2.09. Next, “GATGATTGTTCTCCCAGCTGATGAATTGTACGCATCGAGTAAACAAATTTTCCTAATCTTTCTGTTCAAGCGCCATCTAC”: 1.14. Next, “GATGATTGTTCTCCCAGCTGATGAATTCGACCATTCGAGTAAACAAATTTTCCTAATCTTTCTGTTCAAGCGCCATCTAC”: 0.428.

With “GATGATTGTTCTCCCAGCTGATGAATTGAGTTTGTCGAGTAAACAAATTTTCCTAATCTTTCTGTTCAAGCGCCATCTAC”, the binding signal (RPM ratio (pull-down/input)) worked out at 3.48. Next, “GATGATTGTTCTCCCAGCTGATGAATTATATAAGTCGAGTAAACAAATTTTCCTAATCTTTCTGTTCAAGCGCCATCTAC”: 0.369; “GATGATTGTTCTCCCAGCTGATGAATTATCTATCTCGAGTAAACAAATTTTCCTAATCTTTCTGTTCAAGCGCCATCTAC”: 0.385; “GATGATTGTTCTCCCAGCTGATGAATTTAAGAGCTCGAGTAAACAAATTTTCCTAATCTTTCTGTTCAAGCGCCATCTAC”: 0.197. Next, “GATGATTGTTCTCCCAGCTGATGAATTGAGCATGTCGAGTAAACAAATTTTCCTAATCTTTCTGTTCAAGCGCCATCTAC”: 4.46; “GATGATTGTTCTCCCAGCTGATGAATTGGAATTGTCGAGTAAACAAATTTTCCTAATCTTTCTGTTCAAGCGCCATCTAC”: 0.647; “GATGATTGTTCTCCCAGCTGATGAATTGTTAGAATCGAGTAAACAAATTTTCCTAATCTTTCTGTTCAAGCGCCATCTAC”: 0.409. For “GATGATTGTTCTCCCAGCTGATGAATTCGCAGAGTCGAGTAAACAAATTTTCCTAATCTTTCTGTTCAAGCGCCATCTAC”, the binding signal (RPM ratio (pull-down/input)) was determined as 0.25.

Regarding “GATGATTGTTCTCCCAGCTGATGAATTGTGTACTTCGAGTAAACAAATTTTCCTAATCTTTCTGTTCAAGCGCCATCTAC”, the binding signal (RPM ratio (pull-down/input)) was determined as 3.76. As for “GATGATTGTTCTCCCAGCTGATGAATTTAGGCATTCGAGTAAACAAATTTTCCTAATCTTTCTGTTCAAGCGCCATCTAC”, the binding signal (RPM ratio (pull-down/input)) came to 5.38. Next, “GATGATTGTTCTCCCAGCTGATGAATTGATGAAGTCGAGTAAACAAATTTTCCTAATCTTTCTGTTCAAGCGCCATCTAC”: 0.277.

For the sequence “GATGATTGTTCTCCCAGCTGATGAATTCCGTCATTCGAGTAAACAAATTTTCCTAATCTTTCTGTTCAAGCGCCATCTAC”, the binding signal (RPM ratio (pull-down/input)) amounted to 1.64. Next, “GATGATTGTTCTCCCAGCTGATGAATTACCCTTGTCGAGTAAACAAATTTTCCTAATCTTTCTGTTCAAGCGCCATCTAC”: 0.319. In the case of “GATGATTGTTCTCCCAGCTGATGAATTGGGTGCGTCGAGTAAACAAATTTTCCTAATCTTTCTGTTCAAGCGCCATCTAC”, the binding signal (RPM ratio (pull-down/input)) came to 0.81. As to “GATGATTGTTCTCCCAGCTGATGAATTTCGTCTCTCGAGTAAACAAATTTTCCTAATCTTTCTGTTCAAGCGCCATCTAC”, the binding signal (RPM ratio (pull-down/input)) amounted to 1.02. Take “GATGATTGTTCTCCCAGCTGATGAATTCAGGACCTCGAGTAAACAAATTTTCCTAATCTTTCTGTTCAAGCGCCATCTAC”: the binding signal (RPM ratio (pull-down/input)) is 0.26.

On to “GATGATTGTTCTCCCAGCTGATGAATTTATACAATCGAGTAAACAAATTTTCCTAATCTTTCTGTTCAAGCGCCATCTAC”, for which the binding signal (RPM ratio (pull-down/input)) came out at 1.15.

Turning to “GATGATTGTTCTCCCAGCTGATGAATTCGAAAGGTCGAGTAAACAAATTTTCCTAATCTTTCTGTTCAAGCGCCATCTAC”, the binding signal (RPM ratio (pull-down/input)) is 0.219. Consider “GATGATTGTTCTCCCAGCTGATGAATTAATGGATTCGAGTAAACAAATTTTCCTAATCTTTCTGTTCAAGCGCCATCTAC”, for which the binding signal (RPM ratio (pull-down/input)) was found to be 0.351.

Regarding “GATGATTGTTCTCCCAGCTGATGAATTCTACTGATCGAGTAAACAAATTTTCCTAATCTTTCTGTTCAAGCGCCATCTAC”, the binding signal (RPM ratio (pull-down/input)) is 0.389. With “GATGATTGTTCTCCCAGCTGATGAATTATGCCTTTCGAGTAAACAAATTTTCCTAATCTTTCTGTTCAAGCGCCATCTAC”, the binding signal (RPM ratio (pull-down/input)) stood at 5.34. Then “GATGATTGTTCTCCCAGCTGATGAATTTCTGTCTTCGAGTAAACAAATTTTCCTAATCTTTCTGTTCAAGCGCCATCTAC”, with 0.368. For the sequence “GATGATTGTTCTCCCAGCTGATGAATTAGGGAGATCGAGTAAACAAATTTTCCTAATCTTTCTGTTCAAGCGCCATCTAC”, the binding signal (RPM ratio (pull-down/input)) was 0.213. Consider “GATGATTGTTCTCCCAGCTGATGAATTATACTCATCGAGTAAACAAATTTTCCTAATCTTTCTGTTCAAGCGCCATCTAC”, for which the binding signal (RPM ratio (pull-down/input)) stood at 0.569. Next, “GATGATTGTTCTCCCAGCTGATGAATTTTATAATTCGAGTAAACAAATTTTCCTAATCTTTCTGTTCAAGCGCCATCTAC”: 0.576. Next, “GATGATTGTTCTCCCAGCTGATGAATTAGGCATGTCGAGTAAACAAATTTTCCTAATCTTTCTGTTCAAGCGCCATCTAC”: 4.56; “GATGATTGTTCTCCCAGCTGATGAATTTCCCTAGTCGAGTAAACAAATTTTCCTAATCTTTCTGTTCAAGCGCCATCTAC”: 0.205.

Take “GATGATTGTTCTCCCAGCTGATGAATTGCATTTATCGAGTAAACAAATTTTCCTAATCTTTCTGTTCAAGCGCCATCTAC”: the binding signal (RPM ratio (pull-down/input)) amounted to 4.07. As for “GATGATTGTTCTCCCAGCTGATGAATTGCCCAGATCGAGTAAACAAATTTTCCTAATCTTTCTGTTCAAGCGCCATCTAC”, the binding signal (RPM ratio (pull-down/input)) was 0.287. For the sequence “GATGATTGTTCTCCCAGCTGATGAATTTTCTTACTCGAGTAAACAAATTTTCCTAATCTTTCTGTTCAAGCGCCATCTAC”, the binding signal (RPM ratio (pull-down/input)) amounted to 0.302. As for “GATGATTGTTCTCCCAGCTGATGAATTGCCAACGTCGAGTAAACAAATTTTCCTAATCTTTCTGTTCAAGCGCCATCTAC”, the binding signal (RPM ratio (pull-down/input)) worked out at 0.499.

Consider “GATGATTGTTCTCCCAGCTGATGAATTTCATCCTTCGAGTAAACAAATTTTCCTAATCTTTCTGTTCAAGCGCCATCTAC”, for which the binding signal (RPM ratio (pull-down/input)) worked out at 0.335. As to “GATGATTGTTCTCCCAGCTGATGAATTAGCGCAATCGAGTAAACAAATTTTCCTAATCTTTCTGTTCAAGCGCCATCTAC”, the binding signal (RPM ratio (pull-down/input)) amounted to 3.66. For “GATGATTGTTCTCCCAGCTGATGAATTCGAACACTCGAGTAAACAAATTTTCCTAATCTTTCTGTTCAAGCGCCATCTAC”, the binding signal (RPM ratio (pull-down/input)) is 0.457.

In the case of “GATGATTGTTCTCCCAGCTGATGAATTCTCCCTGTCGAGTAAACAAATTTTCCTAATCTTTCTGTTCAAGCGCCATCTAC”, the binding signal (RPM ratio (pull-down/input)) amounted to 0.215. Next, “GATGATTGTTCTCCCAGCTGATGAATTTACATCGTCGAGTAAACAAATTTTCCTAATCTTTCTGTTCAAGCGCCATCTAC”: 0.725; “GATGATTGTTCTCCCAGCTGATGAATTTTCCCGCTCGAGTAAACAAATTTTCCTAATCTTTCTGTTCAAGCGCCATCTAC”: 0.165. Then “GATGATTGTTCTCCCAGCTGATGAATTTGACGTTTCGAGTAAACAAATTTTCCTAATCTTTCTGTTCAAGCGCCATCTAC”, with 1.43; and “GATGATTGTTCTCCCAGCTGATGAATTCGATAAGTCGAGTAAACAAATTTTCCTAATCTTTCTGTTCAAGCGCCATCTAC”, with 0.283; and “GATGATTGTTCTCCCAGCTGATGAATTACACCCTTCGAGTAAACAAATTTTCCTAATCTTTCTGTTCAAGCGCCATCTAC”, with 0.428.

“GATGATTGTTCTCCCAGCTGATGAATTCAAACAATCGAGTAAACAAATTTTCCTAATCTTTCTGTTCAAGCGCCATCTAC”: the binding signal (RPM ratio (pull-down/input)) stood at 1.64. Next, “GATGATTGTTCTCCCAGCTGATGAATTATATTAATCGAGTAAACAAATTTTCCTAATCTTTCTGTTCAAGCGCCATCTAC”: 0.595; “GATGATTGTTCTCCCAGCTGATGAATTAGGTAGTTCGAGTAAACAAATTTTCCTAATCTTTCTGTTCAAGCGCCATCTAC”: 0.919; “GATGATTGTTCTCCCAGCTGATGAATTTGTTTTTTCGAGTAAACAAATTTTCCTAATCTTTCTGTTCAAGCGCCATCTAC”: 6.93. Then “GATGATTGTTCTCCCAGCTGATGAATTTCCAAGCTCGAGTAAACAAATTTTCCTAATCTTTCTGTTCAAGCGCCATCTAC”, with 0.233.

Turning to “GATGATTGTTCTCCCAGCTGATGAATTAGATCGATCGAGTAAACAAATTTTCCTAATCTTTCTGTTCAAGCGCCATCTAC”, the binding signal (RPM ratio (pull-down/input)) turned out to be 0.257. Next, “GATGATTGTTCTCCCAGCTGATGAATTCGTTTCTTCGAGTAAACAAATTTTCCTAATCTTTCTGTTCAAGCGCCATCTAC”: 1.72; “GATGATTGTTCTCCCAGCTGATGAATTAAAGGTCTCGAGTAAACAAATTTTCCTAATCTTTCTGTTCAAGCGCCATCTAC”: 0.359; “GATGATTGTTCTCCCAGCTGATGAATTTATTGGATCGAGTAAACAAATTTTCCTAATCTTTCTGTTCAAGCGCCATCTAC”: 0.963.

With “GATGATTGTTCTCCCAGCTGATGAATTGGTTTCTTCGAGTAAACAAATTTTCCTAATCTTTCTGTTCAAGCGCCATCTAC”, the binding signal (RPM ratio (pull-down/input)) came to 1.39. Then “GATGATTGTTCTCCCAGCTGATGAATTAGTACAATCGAGTAAACAAATTTTCCTAATCTTTCTGTTCAAGCGCCATCTAC”, with 0.831; and “GATGATTGTTCTCCCAGCTGATGAATTTGTCTCGTCGAGTAAACAAATTTTCCTAATCTTTCTGTTCAAGCGCCATCTAC”, with 2.57. Then “GATGATTGTTCTCCCAGCTGATGAATTAGGTTCATCGAGTAAACAAATTTTCCTAATCTTTCTGTTCAAGCGCCATCTAC”, with 0.598. Regarding “GATGATTGTTCTCCCAGCTGATGAATTCCCCATATCGAGTAAACAAATTTTCCTAATCTTTCTGTTCAAGCGCCATCTAC”, the binding signal (RPM ratio (pull-down/input)) was found to be 0.264. Then “GATGATTGTTCTCCCAGCTGATGAATTACCAATGTCGAGTAAACAAATTTTCCTAATCTTTCTGTTCAAGCGCCATCTAC”, with 0.364; and “GATGATTGTTCTCCCAGCTGATGAATTGGGCTACTCGAGTAAACAAATTTTCCTAATCTTTCTGTTCAAGCGCCATCTAC”, with 1.21; and “GATGATTGTTCTCCCAGCTGATGAATTCCGAAATTCGAGTAAACAAATTTTCCTAATCTTTCTGTTCAAGCGCCATCTAC”, with 0.558. Take “GATGATTGTTCTCCCAGCTGATGAATTCTCTAGATCGAGTAAACAAATTTTCCTAATCTTTCTGTTCAAGCGCCATCTAC”: the binding signal (RPM ratio (pull-down/input)) was 0.18. As to “GATGATTGTTCTCCCAGCTGATGAATTACTCGTGTCGAGTAAACAAATTTTCCTAATCTTTCTGTTCAAGCGCCATCTAC”, the binding signal (RPM ratio (pull-down/input)) was 0.429.
